Source: patent publication US20230117205A1, “B7-H4 ANTIBODY-DRUG CONJUGATES FOR THE TREATMENT OF CANCER” (SEAGEN INC., priority 2021, published 2023)

Experiments:
SKBR3 = test: ADCP with primary monocytes/macrophages; assay type: cell-based, human; conditions: 2 independent donors
Description: The B7-H4-expressing cell line SKBR3 and primary monocytes/macrophages were used to evaluate SGN-B7H4V-mediated ADCP. […] Phagocytosis of opsonized cells was assessed by flow cytometry.
SKBR3 tumor cells were fluorescently labeled with PKH26 (PKH26 Red Fluorescent Cell Membrane Labeling Kit, Sigma-Aldrich #PKH26GL-1KT), according to manufacturer instructions: SKBR3 cells were harvested with Versene (Gibco #15040-066) for 10 minutes and washed once with PBS. Cell were resuspended in 1 mL Diluent C (included in the PKH26 Red Fluorescent Cell Membrane Labeling Kit, Sigma-Aldrich #PKH26GL-1KT). In a separate tube, 1 mL Diluent C was mixed with 4 μL PKH26 dye by pipetting up and down. The dye solution was transferred to resuspended cells, quickly mixed by pipetting up and down several times, and incubated at room temperature for 5 minutes. Labeling reaction was stopped by adding 2 mL FBS (0.05-0.2 EU/ml Endotoxin, R&D Systems #S11550H). Cells were then washed once with RPMI 1640 (Gibco #11875-093) containing 10% FBS. Cells were resuspended in PBS at concentration of 0.8×10^6 cells/mL and transferred (300 μL/well) to a 96-well U-bottom plate (Falcon #353227). […] Phagocytosis is reported as the PKH26 geometric mean fluorescence intensity (gMFI) of gated CD14+/CD45+ cells analyzed using Flowjo. […]

[1] = system: MDA-MB-468 tumor and PBMC co-cultures; test: Tumor/PBMC co-culture assay; assay type: cell-based, human; conditions: tumor/immune cell co-cultures
Description: Tumor cells were transfected with Incucyte® Cytolight red lentivirus per manufacturer's instructions and stable polyclonal cell populations expressing mKate2 (red fluorescent protein, RFP) were generated under puromycin selection. Live-cell killing assays were performed by seeding RFP+ MDA-MB-468 tumor cells in 96-well flat bottom plates (Corning #3603) at a variety of densities (3,750-10,000 cells/well) and grown overnight. The following day, PBMCs isolated from healthy donors were added at 15:1 or 25:1 effector to target (E:T) ratios and cultures were treated with the indicated small molecule drugs or ADCs. To evaluate immune cell activation, supernatants were harvested between 120 and 144 hours post treatment and MIP-1β production was evaluated by Milliplex MAP Human cytokine/chemokine/growth factor panel A (12-plex) Immunology Multiple Assay (Millipore Sigma #HCYTA-60K-12C). […] Following the final wash, cell pellets were resuspended in 200 μL staining buffer and analyzed on an NXT Attune flow cytometer (ThermoFisher). Flow cytometry data were analyzed using FlowJo software and monocyte activation was quantified by measuring the MFI of CD86 staining on CD14+ monocytes within the RFP−/live/CD19−/CD3−/CD14+ gate.

[2] = target: T1, recombinant human B7-H4 protein (Homo sapiens, UniProt Q7Z7D3); test: BLI binding to recombinant human B7-H4 (monovalent and bivalent formats); conditions: mAb compared with ADC
T1 construct: B7-H4 extracellular domain Phe29-Ala258 with a C-terminal 10-His tag
T1 sequence (Q7Z7D3 29-258): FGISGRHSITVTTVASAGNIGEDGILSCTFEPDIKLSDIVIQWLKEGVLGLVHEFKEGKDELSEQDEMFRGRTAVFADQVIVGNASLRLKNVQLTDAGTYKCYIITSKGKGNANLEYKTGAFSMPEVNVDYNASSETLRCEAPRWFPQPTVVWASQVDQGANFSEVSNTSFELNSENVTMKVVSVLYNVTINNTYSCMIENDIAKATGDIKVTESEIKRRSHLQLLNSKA

B1: B7H41001 mAb (antibody)
heavy: QLQLQESGPGLVKPSETLSLTCTVSGGSIKSGSYYWGWIRQPPGKGLEWIGNIYYSGSTYYNPSLRSRVTISVDTSKNQFSLKLSSVTAADTAVYYCAREGSYPNQFDPWGQGTLVTVSS[human IgG1 constant region not listed]
light: EIVMTQSPATLSVSPGERATLSCRASQSVSSNLAWYQQKPGQAPRLLIYGASTRATGIPARFSGSGSGTEFTLTISSLQSEDFAVYYCQQYHSFPFTFGGGTKVEIKRTVAAPSVFIFPPSDEQLKSGTASVVCLLNNFYPREAKVQWKVDNALQSGNSQESVTEQDSKDSTYSLSSTLTLSKADYEKHKVYACEVTHQGLSSPVTKSFNRGEC
modifications: non-natural residues; cyclised or stapled
ADCP activity (SKBR3): ADCP activity above that seen with the positive control
CD86 on CD14+ monocytes [1]: not
release of MIP-1β/CCL4 [1]: not
binding affinities for hB7-H4 [2]: similar
